Substitutions are numbered along the chain they refer to.
T1: 마우스 Tie2 단백질 (mouse, UniProt Q02858 23-1122)
T1 construct: whole, on cells; also called mouse Tie2
T1 sequence (looked up): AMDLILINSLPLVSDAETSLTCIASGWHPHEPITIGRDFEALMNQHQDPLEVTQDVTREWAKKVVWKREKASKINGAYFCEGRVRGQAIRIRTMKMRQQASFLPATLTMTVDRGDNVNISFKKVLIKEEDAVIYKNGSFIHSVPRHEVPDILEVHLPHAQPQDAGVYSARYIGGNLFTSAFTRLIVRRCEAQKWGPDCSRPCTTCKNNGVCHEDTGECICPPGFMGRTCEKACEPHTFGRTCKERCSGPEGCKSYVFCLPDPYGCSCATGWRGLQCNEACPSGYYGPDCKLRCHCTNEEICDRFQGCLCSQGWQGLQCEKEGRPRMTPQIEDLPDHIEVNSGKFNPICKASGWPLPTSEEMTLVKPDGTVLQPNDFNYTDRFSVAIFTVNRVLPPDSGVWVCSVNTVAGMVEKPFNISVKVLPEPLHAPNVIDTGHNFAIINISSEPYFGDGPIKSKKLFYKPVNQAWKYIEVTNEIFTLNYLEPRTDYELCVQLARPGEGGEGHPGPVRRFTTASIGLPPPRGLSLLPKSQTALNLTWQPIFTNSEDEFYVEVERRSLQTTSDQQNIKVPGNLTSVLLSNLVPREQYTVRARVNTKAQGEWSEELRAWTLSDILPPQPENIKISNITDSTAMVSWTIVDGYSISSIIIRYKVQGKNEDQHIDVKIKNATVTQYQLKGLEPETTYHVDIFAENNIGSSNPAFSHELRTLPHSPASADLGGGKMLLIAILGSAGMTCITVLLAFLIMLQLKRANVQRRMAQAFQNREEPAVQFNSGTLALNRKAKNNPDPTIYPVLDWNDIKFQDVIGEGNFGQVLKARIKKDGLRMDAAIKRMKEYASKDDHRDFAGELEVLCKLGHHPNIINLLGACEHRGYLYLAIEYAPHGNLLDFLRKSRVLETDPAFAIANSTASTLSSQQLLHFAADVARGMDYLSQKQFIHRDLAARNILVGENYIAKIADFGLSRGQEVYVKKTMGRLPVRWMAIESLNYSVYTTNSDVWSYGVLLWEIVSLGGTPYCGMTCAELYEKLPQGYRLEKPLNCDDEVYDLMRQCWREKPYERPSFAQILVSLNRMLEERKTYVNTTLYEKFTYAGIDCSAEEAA

T2: 랫 Tie2 단백질 (rat, UniProt A0ABK0L6J5 19-1116)
T2 construct: whole, on cells; also called rat Tie2
T2 sequence: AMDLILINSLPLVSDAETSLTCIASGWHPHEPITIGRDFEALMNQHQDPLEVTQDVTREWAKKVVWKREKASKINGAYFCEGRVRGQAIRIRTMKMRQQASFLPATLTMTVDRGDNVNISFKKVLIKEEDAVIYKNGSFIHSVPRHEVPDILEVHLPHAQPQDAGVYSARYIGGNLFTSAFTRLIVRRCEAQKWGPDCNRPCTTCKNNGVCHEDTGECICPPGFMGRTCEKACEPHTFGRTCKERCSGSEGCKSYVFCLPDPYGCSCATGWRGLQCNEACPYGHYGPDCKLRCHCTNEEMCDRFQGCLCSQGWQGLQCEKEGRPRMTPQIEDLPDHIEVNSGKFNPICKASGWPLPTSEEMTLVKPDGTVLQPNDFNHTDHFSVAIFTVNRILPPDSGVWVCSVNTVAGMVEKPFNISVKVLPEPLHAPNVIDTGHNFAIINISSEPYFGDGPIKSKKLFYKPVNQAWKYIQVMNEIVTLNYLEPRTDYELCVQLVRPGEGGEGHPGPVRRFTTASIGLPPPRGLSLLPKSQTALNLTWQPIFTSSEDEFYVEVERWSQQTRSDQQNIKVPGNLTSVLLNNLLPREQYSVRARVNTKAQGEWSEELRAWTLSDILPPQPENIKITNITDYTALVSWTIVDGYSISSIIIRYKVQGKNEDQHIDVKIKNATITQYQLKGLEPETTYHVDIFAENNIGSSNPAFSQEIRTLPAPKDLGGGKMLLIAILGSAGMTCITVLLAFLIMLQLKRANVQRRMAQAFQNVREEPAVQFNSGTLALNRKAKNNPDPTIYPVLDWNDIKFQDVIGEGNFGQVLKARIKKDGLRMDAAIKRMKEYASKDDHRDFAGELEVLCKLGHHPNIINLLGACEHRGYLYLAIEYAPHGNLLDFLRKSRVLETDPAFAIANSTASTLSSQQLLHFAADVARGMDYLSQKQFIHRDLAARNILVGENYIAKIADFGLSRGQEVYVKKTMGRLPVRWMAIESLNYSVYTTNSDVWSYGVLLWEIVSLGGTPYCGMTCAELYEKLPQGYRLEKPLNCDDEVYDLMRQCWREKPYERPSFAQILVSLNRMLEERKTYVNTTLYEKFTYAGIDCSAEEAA

T3: 개 Tie2 단백질 (dog, UniProt A0A8I3S0B4 27-1128)
T3 construct: whole, on cells; also called dog Tie2
T3 sequence: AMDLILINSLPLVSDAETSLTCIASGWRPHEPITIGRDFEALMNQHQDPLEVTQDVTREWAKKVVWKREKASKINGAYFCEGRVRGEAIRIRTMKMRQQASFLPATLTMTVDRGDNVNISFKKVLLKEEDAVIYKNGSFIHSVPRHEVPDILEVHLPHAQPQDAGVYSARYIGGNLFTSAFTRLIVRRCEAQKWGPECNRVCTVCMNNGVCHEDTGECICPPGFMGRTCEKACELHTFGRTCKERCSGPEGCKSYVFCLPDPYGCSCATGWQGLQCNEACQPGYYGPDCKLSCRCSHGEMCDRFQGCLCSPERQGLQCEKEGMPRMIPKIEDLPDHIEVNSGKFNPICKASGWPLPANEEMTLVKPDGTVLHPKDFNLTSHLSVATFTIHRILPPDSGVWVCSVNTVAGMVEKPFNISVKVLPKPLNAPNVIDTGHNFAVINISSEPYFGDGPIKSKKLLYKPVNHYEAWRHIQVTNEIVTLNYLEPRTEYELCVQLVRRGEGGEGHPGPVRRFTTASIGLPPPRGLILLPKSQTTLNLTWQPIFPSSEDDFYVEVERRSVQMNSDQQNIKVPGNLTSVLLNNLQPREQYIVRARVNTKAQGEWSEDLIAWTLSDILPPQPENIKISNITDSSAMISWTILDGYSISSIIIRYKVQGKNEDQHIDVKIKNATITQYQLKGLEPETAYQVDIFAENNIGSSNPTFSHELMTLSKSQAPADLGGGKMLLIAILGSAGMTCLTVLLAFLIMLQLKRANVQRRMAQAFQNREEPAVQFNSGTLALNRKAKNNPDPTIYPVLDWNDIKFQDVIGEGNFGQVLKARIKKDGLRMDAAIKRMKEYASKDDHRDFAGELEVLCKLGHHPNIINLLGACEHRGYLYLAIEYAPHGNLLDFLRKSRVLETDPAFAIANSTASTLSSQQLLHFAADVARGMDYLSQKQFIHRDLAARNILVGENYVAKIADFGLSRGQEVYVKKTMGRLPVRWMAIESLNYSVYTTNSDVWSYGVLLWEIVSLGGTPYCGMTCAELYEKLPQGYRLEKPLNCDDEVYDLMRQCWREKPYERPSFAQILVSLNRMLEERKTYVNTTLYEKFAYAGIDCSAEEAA

B1: Ang1mab1 (antibody, human IgG1, kappa)
heavy: QVQLVQSGGGVVQPGRSLRLSCAASGLTFSNYAMHWVRQAPGKGLEWVAVISYDGENKYYADSVKGRFTISRDNSKNMLQLQMNRLRSEDTAVYYCATPKGGALEIWGQGTVITVSS[sequence of human IgG1 constant region omitted]
light: DIQMTQSPDSLAVSLGERATINCKSSQSVLYSSNNKNYLAWYQQKPGQPPNLLMYWASTRESGVPDRFSGSGSGTDFTLTISSLQAEDVAVYYCQQYYSAPITFGQGTRLEIKRTVAAPSVFIFPPSDEQLKSGTASVVCLLNNFYPREAKVQWKVDNALQSGNSQESVTEQDSKDSTYSLSSTLTLSKADYEKHKVYACEVTHQGLSSPVTKSFNRGEC
notes: Its matched control is called IgG1 control; also called 제1 기본 항체; 기본 항체 Ang1mab1
B2: Ang1mab4 (antibody, human IgG4 S228P, kappa)
heavy: QVQLVQSGGGVVQPGRSLRLSCAASGLTFSNYAMHWVRQAPGKGLEWVAVISYDGENKYYADSVKGRFTISRDNSKNMLQLQMNRLRSEDTAVYYCATPKGGALEIWGQGTVITVSSASTKGPSVFPLAPCSRSTSESTAALGCLVKDYFPEPVTVSWNSGALTSGVHTFPAVLQSSGLYSLSSVVTVPSSSLGTKTYTCNVDHKPSNTKVDKRV[sequence of human IgG4 Fc with S228P (EU numbers) omitted]
light: B1 light
notes: also called 제1 기본 항체; 기본 항체 Ang1mab4
B3: Ang1mab4(H1G01A) (antibody, human IgG4 S228P, kappa)
heavy: B2 heavy with G26A
light: B1 light
notes: Variant of Ang1mab4; also called 변이 항체
B4: Ang1mab4(H1L02A) (antibody, human IgG4 S228P, kappa)
heavy: B2 heavy with L27A
light: B1 light
notes: Variant of Ang1mab4; frameworks and constant regions from Ang1mab4; also called 변이 항체
B5: Ang1mab4(H1S05A) (antibody, human IgG4 S228P, kappa)
heavy: B2 heavy with S30A
light: B1 light
notes: as for B4
B6: Ang1mab4(H1V12A) (antibody, human IgG4 S228P, kappa)
heavy: B2 heavy with V37A
light: B1 light
notes: as for B4
B7: Ang1mab4(L1Q01A) (antibody, human IgG4 S228P, kappa)
heavy: B2 heavy
light: B1 light with Q27A
notes: as for B4
B8: Ang1mab4(L1S07A) (antibody, human IgG4 S228P, kappa)
heavy: B2 heavy
light: B1 light with S33A
notes: as for B4
B9: Ang1mab4(L1V03A) (antibody, human IgG4 S228P, kappa)
heavy: B2 heavy
light: B1 light with V29A
notes: as for B4
B10: Ang1mab4(L1Y05F) (antibody, human IgG4 S228P, kappa)
heavy: B2 heavy
light: B1 light with Y31F
notes: as for B4

These binders were tested against T1, 마우스 Tie2 단백질 (assay: flow cytometry, HEK293T cells transfected with mouse Tie2).

Binder | binding result
B1 | no binding (tested: 5ug/ml)
B2 | no binding (tested: 5ug/ml)
B3 | no binding (tested: 5ug/ml)
B4 | no binding (tested: 5ug/ml)
B5 | no binding (tested: 5ug/ml)
B6 | no binding (tested: 5ug/ml)
B7 | no binding (tested: 5ug/ml)
B8 | no binding (tested: 5ug/ml)
B9 | no binding (tested: 5ug/ml)
B10 | no binding (tested: 5ug/ml)

These binders were tested against T2, 랫 Tie2 단백질 (assay: flow cytometry, HEK293T cells transfected with rat Tie2).

Binder | binding result
B1 | no binding (tested: 5ug/ml)
B2 | no binding (tested: 5ug/ml)
B3 | no binding (tested: 5ug/ml)
B4 | no binding (tested: 5ug/ml)
B5 | no binding (tested: 5ug/ml)
B6 | no binding (tested: 5ug/ml)
B7 | no binding (tested: 5ug/ml)
B8 | no binding (tested: 5ug/ml)
B9 | no binding (tested: 5ug/ml)
B10 | no binding (tested: 5ug/ml)

The binders below were run against T3, 개 Tie2 단백질 (assay: flow cytometry, HEK293T cells transfected with dog Tie2).

Binder | binding result
B1 | no binding (tested: 5ug/ml)
B2 | no binding (tested: 5ug/ml)
B3 | no binding (tested: 5ug/ml)
B4 | no binding (tested: 5ug/ml)
B5 | no binding (tested: 5ug/ml)
B6 | no binding (tested: 5ug/ml)
B7 | no binding (tested: 5ug/ml)
B8 | no binding (tested: 5ug/ml)
B9 | no binding (tested: 5ug/ml)
B10 | no binding (tested: 5ug/ml)
